Common to all, as to assay: glycan array binding signal (z-score within array); higher = stronger binding
Details in all cases: glycan notation: IUPAC condensed, linker removed; mutation: N224Q

Assay [1] deals with Gal(b1-4)GlcNAc(b1-3)Gal(b1-4)GlcNAc(b1-3)Gal(b1-4)GlcNAc. The gist of the method:
(§1)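 The Consortium for Functional Glycomics database supplied 3228 glycan arrays, of which those lacking an available protein sequence were dropped. The binding signal, a within-array Z-score, was averaged across arrays of the same protein sequence and across linkers. Negative scores can be read as non-binding.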

Assay [2] deals with Gal(b1-4)GlcNAc(b1-3)Gal(b1-4)GlcNAc(b1-3)Gal(b1-4)GlcNAc(b1-2)Man(a1-3)[Gal(b1-4)GlcNAc(b1-3)Gal(b1-4)GlcNAc(b1-3)Gal(b1-4)GlcNAc(b1-2)Man(a1-6)]Man(b1-4)GlcNAc(b1-4)GlcNAc. The gist of the method:
as §1

Assay [3] concerns the target Gal(b1-4)GlcNAc(b1-3)Gal(b1-4)GlcNAc(b1-3)Gal(b1-4)GlcNAc(b1-2)Man(a1-3)[Gal(b1-4)GlcNAc(b1-3)Gal(b1-4)GlcNAc(b1-3)Gal(b1-4)GlcNAc(b1-2)Man(a1-6)]Man(b1-4)GlcNAc(b1-4)[Fuc(a1-6)]GlcNAc. The gist of the method: as §1
In assay [4] the target is Gal(b1-4)GlcNAc(b1-3)Gal(b1-4)GlcNAc(b1-3)Gal(b1-4)GlcNAc(b1-2)[Gal(b1-4)GlcNAc(b1-3)Gal(b1-4)GlcNAc(b1-3)Gal(b1-4)GlcNAc(b1-6)]Man(a1-6)[Gal(b1-4)GlcNAc(b1-3)Gal(b1-4)GlcNAc(b1-3)Gal(b1-4)GlcNAc(b1-2)Man(a1-3)]Man(b1-4)GlcNAc(b1-4)[Fuc(a1-6)]GlcNAc. The gist of the method: as §1
Assay [5] addresses Gal(b1-4)GlcNAc(b1-3)Gal(b1-4)GlcNAc(b1-3)Gal(b1-4)GlcNAc(b1-3)Gal(b1-4)GlcNAc(b1-2)Man(a1-3)[Gal(b1-4)GlcNAc(b1-3)Gal(b1-4)GlcNAc(b1-3)Gal(b1-4)GlcNAc(b1-3)Gal(b1-4)GlcNAc(b1-2)Man(a1-6)]Man(b1-4)GlcNAc(b1-4)GlcNAc. The procedure, abridged:
as §1

The target in assay [6] is Gal(b1-4)GlcNAc(b1-3)Gal(b1-4)GlcNAc(b1-3)Gal(b1-4)GlcNAc(b1-3)Gal(b1-4)GlcNAc(b1-2)Man(a1-3)[Gal(b1-4)GlcNAc(b1-3)Gal(b1-4)GlcNAc(b1-3)Gal(b1-4)GlcNAc(b1-3)Gal(b1-4)GlcNAc(b1-2)Man(a1-6)]Man(b1-4)GlcNAc(b1-4)[Fuc(a1-6)]GlcNAc. The procedure, abridged: as §1
Assay [7] deals with Gal(b1-4)GlcNAc(b1-3)Gal(b1-4)GlcNAc(b1-3)Gal(b1-4)GlcNAc(b1-3)Gal(b1-4)GlcNAc(b1-2)[Gal(b1-4)GlcNAc(b1-3)Gal(b1-4)GlcNAc(b1-3)Gal(b1-4)GlcNAc(b1-3)Gal(b1-4)GlcNAc(b1-6)]Man(a1-6)[Gal(b1-4)GlcNAc(b1-3)Gal(b1-4)GlcNAc(b1-3)Gal(b1-4)GlcNAc(b1-3)Gal(b1-4)GlcNAc(b1-2)Man(a1-3)]Man(b1-4)GlcNAc(b1-4)[Fuc(a1-6)]GlcNAc. The procedure, abridged: as §1
Assay [8] deals with Gal(b1-4)GlcNAc(b1-3)Gal(b1-4)GlcNAc(b1-3)Gal(b1-4)GlcNAc(b1-3)Gal(b1-4)GlcNAc(b1-3)Gal(b1-4)GlcNAc(b1-2)Man(a1-3)[Gal(b1-4)GlcNAc(b1-3)Gal(b1-4)GlcNAc(b1-3)Gal(b1-4)GlcNAc(b1-3)Gal(b1-4)GlcNAc(b1-3)Gal(b1-4)GlcNAc(b1-2)Man(a1-6)]Man(b1-4)GlcNAc(b1-4)GlcNAc. The procedure, abridged:
as §1

Assay [9] deals with Gal(b1-4)GlcNAc(b1-3)Gal(b1-4)GlcNAc(b1-3)Gal(b1-4)GlcNAc(b1-3)Gal(b1-4)GlcNAc(b1-3)Gal(b1-4)GlcNAc(b1-2)Man(a1-3)[Gal(b1-4)GlcNAc(b1-3)Gal(b1-4)GlcNAc(b1-3)Gal(b1-4)GlcNAc(b1-3)Gal(b1-4)GlcNAc(b1-3)Gal(b1-4)GlcNAc(b1-2)Man(a1-6)]Man(b1-4)GlcNAc(b1-4)[Fuc(a1-6)]GlcNAc. The procedure, abridged:
as §1

The target of assay [10] is Gal(b1-4)GlcNAc(b1-3)Gal(b1-4)GlcNAc(b1-3)Gal(b1-4)GlcNAc(b1-3)Gal(b1-4)GlcNAc(b1-3)Gal(b1-4)GlcNAc(b1-2)[Gal(b1-4)GlcNAc(b1-3)Gal(b1-4)GlcNAc(b1-3)Gal(b1-4)GlcNAc(b1-3)Gal(b1-4)GlcNAc(b1-3)Gal(b1-4)GlcNAc(b1-6)]Man(a1-6)[Gal(b1-4)GlcNAc(b1-3)Gal(b1-4)GlcNAc(b1-3)Gal(b1-4)GlcNAc(b1-3)Gal(b1-4)GlcNAc(b1-3)Gal(b1-4)GlcNAc(b1-2)Man(a1-3)]Man(b1-4)GlcNAc(b1-4)[Fuc(a1-6)]GlcNAc. The procedure, abridged: as §1

Assay [11] concerns the target Gal(b1-4)GlcNAc(b1-3)Gal(b1-4)GlcNAc(b1-3)Gal(b1-4)GlcNAc(b1-3)Gal(b1-4)GlcNAc(b1-3)Gal(b1-4)GlcNAc(b1-3)Gal(b1-4)GlcNAc(b1-2)Man(a1-3)[Gal(b1-4)GlcNAc(b1-3)Gal(b1-4)GlcNAc(b1-3)Gal(b1-4)GlcNAc(b1-3)Gal(b1-4)GlcNAc(b1-3)Gal(b1-4)GlcNAc(b1-3)Gal(b1-4)GlcNAc(b1-2)Man(a1-6)]Man(b1-4)GlcNAc(b1-4)GlcNAc. The gist of the method:
as §1

For assay [12], the target named is Gal(b1-4)GlcNAc(b1-3)Gal(b1-4)GlcNAc(b1-3)GalNAc. The procedure, abridged:
as §1

Assay [13] has as its target Gal(b1-4)GlcNAc(b1-3)Gal(b1-4)GlcNAc(b1-3)[Gal(b1-4)GlcNAc(b1-3)Gal(b1-4)GlcNAc(b1-6)]GalNAc. The gist of the method: as §1
In assay [14] the target is Gal(b1-4)GlcNAc(b1-3)Gal(b1-4)GlcNAc(b1-6)[Gal(b1-3)]GalNAc. The gist of the method: as §1
The target of assay [15] is Gal(b1-4)GlcNAc(b1-3)Gal(b1-4)[Fuc(a1-3)]GlcNAc(b1-3)Gal(b1-4)[Fuc(a1-3)]GlcNAc. The procedure, abridged:
as §1

The target of assay [16] is Gal(b1-4)GlcNAc(b1-3)GalNAc. The gist of the method:
as §1

The target of assay [17] is Gal(b1-4)GlcNAc(b1-3)[Fuc(a1-3)GlcNAc(b1-6)]Gal(b1-4)Glc. The procedure, abridged: as §1
For assay [18], the target named is Gal(b1-4)GlcNAc(b1-3)[Gal(b1-4)GlcNAc(b1-6)]Gal(b1-4)GlcNAc. The gist of the method: as §1
In assay [19] the target is Gal(b1-4)GlcNAc(b1-3)[GlcNAc(b1-6)]Gal(b1-4)GlcNAc. The gist of the method: as §1

The source of these data is the supplement of paper PMC8728848.

This is one part of the list.

B1: AAL (Aleuria aurantia) (protein)
chain: MPTEFLYTSKIAAISWAATGGRQQRVYFQDLNGKIREAQRGGDNPWTGGSSQNVIGEAKLFSPLAAVTWKSAQGIQIRVYCVNKDNILSEFVYDGSKWITGQLGSVGVKVGSNSKLAALQWGGSESAPPNIRVYYQKSNGSGSSIHEYVWSGKWTAGASFGSTVPGTGIGATAIGPGRLRIYYQATDNKIREHCWDSNSWYVGGFSASASAGVSIAAISWGSTPQIRVYWQKGREELYEAAYGGSWNTPGQIKDASRPTPSLPDTFIAANSSGNIDISVFFQASGVSLQQWQWISGKGWSIGAVVPTGTPAGW
In the case of B1, the “glycan array binding signal (z-score)” value in [1] was -0.306; in [2], -0.195; in [3], 1.85; in [4], -0.092; in assay [5], -0.275; in assay [6], 1.58. Moreover, the “glycan array binding signal (z-score)” value in assay [7] is -0.229; in assay [8], -0.237; in assay [9] it was 1.62; in assay [10] it was -0.248; in [11], -0.19; in assay [12], -0.224. Besides, the “glycan array binding signal (z-score)” value in assay [13] is -0.068; in [14] it was -0.261; in assay [15], 0.142; in [16] it was -0.318; in assay [17] it was -0.2; in assay [18], -0.318. Further, the “glycan array binding signal (z-score)” value in assay [19] was -0.293.
